# Experimental data published in PubChem BioAssay AID1347165 (National Center for Advancing Translational Sciences (NCATS), 2019).
# The campaign covered roughly 220,000 compounds. About 5,700 (2.6%) were called active. Inconclusive results, whose numbers are uncertain, are shown with a selection of clear calls. The call rests on the fitted dose curve; in most records, active means well fitted inhibition curve with a large enough effect; inconclusive means small, poorly fitted or top-dose-only effect; inactive means no such curve, though single readings can be large or run the other way. Potencies of inconclusive entries are doubtful fits and often do not repeat.
# Target: Lysine-specific demethylase 5B (Homo sapiens) (UniProt Q9UGL1)
# Chain of UniProt Q9UGL1 (Q9UGL1 whole entry, looked up): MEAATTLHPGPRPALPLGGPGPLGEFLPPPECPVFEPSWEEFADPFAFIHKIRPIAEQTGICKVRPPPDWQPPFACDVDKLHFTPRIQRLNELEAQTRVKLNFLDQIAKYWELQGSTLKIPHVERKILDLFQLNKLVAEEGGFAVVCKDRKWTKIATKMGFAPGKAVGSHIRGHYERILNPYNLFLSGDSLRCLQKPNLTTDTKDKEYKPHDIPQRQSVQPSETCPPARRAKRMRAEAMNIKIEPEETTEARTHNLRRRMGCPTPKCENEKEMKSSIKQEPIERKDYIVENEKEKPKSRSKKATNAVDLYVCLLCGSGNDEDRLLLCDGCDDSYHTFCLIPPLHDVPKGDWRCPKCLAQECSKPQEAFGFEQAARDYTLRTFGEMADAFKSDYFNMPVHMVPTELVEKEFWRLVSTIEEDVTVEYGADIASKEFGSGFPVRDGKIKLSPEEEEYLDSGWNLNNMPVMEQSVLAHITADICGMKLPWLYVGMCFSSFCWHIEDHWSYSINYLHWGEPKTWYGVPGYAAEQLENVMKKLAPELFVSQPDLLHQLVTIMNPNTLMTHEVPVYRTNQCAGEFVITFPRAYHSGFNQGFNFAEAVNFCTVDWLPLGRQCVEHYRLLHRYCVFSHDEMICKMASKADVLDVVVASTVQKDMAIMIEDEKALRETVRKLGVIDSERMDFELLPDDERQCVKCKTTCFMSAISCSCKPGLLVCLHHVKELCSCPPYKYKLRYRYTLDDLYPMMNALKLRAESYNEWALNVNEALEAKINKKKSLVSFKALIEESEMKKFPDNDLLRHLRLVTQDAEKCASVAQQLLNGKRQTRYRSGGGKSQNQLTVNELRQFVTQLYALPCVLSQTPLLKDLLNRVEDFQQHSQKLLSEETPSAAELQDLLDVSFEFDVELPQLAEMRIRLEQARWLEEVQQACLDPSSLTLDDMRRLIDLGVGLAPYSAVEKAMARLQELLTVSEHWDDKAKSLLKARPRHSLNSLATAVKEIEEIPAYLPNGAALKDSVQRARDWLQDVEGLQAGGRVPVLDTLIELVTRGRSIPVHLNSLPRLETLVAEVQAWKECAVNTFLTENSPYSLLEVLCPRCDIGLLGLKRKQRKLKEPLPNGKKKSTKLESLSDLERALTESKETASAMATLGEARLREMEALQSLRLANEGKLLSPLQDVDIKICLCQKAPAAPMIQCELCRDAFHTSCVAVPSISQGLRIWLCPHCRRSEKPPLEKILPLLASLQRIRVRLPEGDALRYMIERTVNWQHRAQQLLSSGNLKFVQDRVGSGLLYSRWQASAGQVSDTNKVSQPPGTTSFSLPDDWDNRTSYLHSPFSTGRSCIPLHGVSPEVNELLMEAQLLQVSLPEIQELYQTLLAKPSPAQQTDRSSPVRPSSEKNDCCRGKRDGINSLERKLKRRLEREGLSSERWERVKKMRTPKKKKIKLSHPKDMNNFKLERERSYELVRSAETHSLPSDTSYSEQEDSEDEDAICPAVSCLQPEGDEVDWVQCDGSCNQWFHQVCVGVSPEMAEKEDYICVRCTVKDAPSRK
# Experiment: Primary screen for KDM5B Histone Demethylases FDH-coupled qHTS; further: nearly all actives have a fitted effect of over 70% in size; on activity change, negative = inhibition: 0% is about no effect
# Settings: FDH-coupled NADH fluorescence (FDH is formaldehyde dehydrogenase); activity change, negative = inhibition: at 57.7 µM (top of the series) unless noted
# How it was run: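 Measured: NADH fluorescence change, 30 min, RT. System: KDM5BΔAP 200 nM final, H3K4me3 peptide, α-KG, Fe(II), ascorbate, NAD⁺ plus FDH, pH 7.5 HEPES. Compounds: titrated, 10 min pre-incubation with enzyme.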
# Potency means the concentration at half of the fitted maximal effect; tags describe the fitted curve by direction and shape.
SMILES,Potency,"activity change, negative = inhibition"
C=CCOc1ccc(C2NC(=S)NC3=C2CCc2ccccc23)cc1 (stereo not drawn),"inconclusive: 25.1 µM [inhibitor, partial curve, poor fit]",
COc1ccccc1NC(=O)CSc1ncc2c(n1)-c1cc(Cl)ccc1N(Cc1ccccc1)S2(=O)=O,"inconclusive: 5.01 µM [inhibitor, partial curve, poor fit]",
O=C(/C=C/c1ccc(Br)cc1)NC1CCCC1,,inactive: 12.2%
CC(=O)Nc1ccc(NC(=O)CC(C)n2ccnc2)cc1 (stereo not drawn),"inconclusive: 20 µM [inhibitor, partial curve, poor fit]",
Cc1ccc(-n2nc(CO)c(C(=O)NCc3cccnc3)n2)cc1,"inconclusive: 28.2 µM [inhibitor, partial curve, poor fit]",
CC(C)(CNC(=O)c1nccnc1N)c1ccc(Br)cc1,"inconclusive: 25.1 µM [inhibitor, partial curve, poor fit]",
Cc1nnc(-c2cc(-c3cccc(CO)c3)ccn2)n1Cc1ccccc1,,inactive: 0.584% [at 86.2 µM]
O=C(O)c1cnc(NCc2cccnc2)nc1-c1ccc(Cl)cc1,active: 31.6 µM,
CN1CCCCCC1=NCCCn1cnc2c1c(=O)n(C)c(=O)n2C,,inactive: 21.5%
O=C(Nc1ccc(Cl)cc1Cl)c1ccnc2[nH]ccc12,,inactive: 3.39% [at 149 µM]
CN(Cc1cccn1C)C(=O)c1ccccc1,,inactive: -14.2% [at 86.2 µM]
CCS(=O)(=O)N1CCN(c2ccc(N3CCCCC3)nn2)CC1,"inconclusive: 25.1 µM [inhibitor, partial curve, poor fit]",
COCC1CN(C)CC12CCN(Cc1ccc(C#N)cc1)CC2 (stereo not drawn),"inconclusive: 22.4 µM [inhibitor, partial curve, poor fit]",
COc1cc(OC)cc(-c2cc3nc(C)c(CCC(=O)NCc4ccc(Cl)cc4)c(C)n3n2)c1,"inconclusive: 39.8 µM [inhibitor, single point]",
CN(C)CC1(O)CCC2(CCN(C(=O)Cn3c(=O)oc4ccccc43)CC2)CC1,,inactive: -3.29%
c1cc(-c2nc(CC3CCCNC3)no2)ccn1 (stereo not drawn),"inconclusive: 28.2 µM [inhibitor, partial curve]",
CC(C)CCNC(=O)C(=O)N1CCN(C(=O)c2cc3ccccc3[nH]2)CC1,,inactive: -11.4%
Cc1nc2cc(-c3cccc(F)c3)nn2c(C)c1CCC(=O)NC1CCN(Cc2ccccc2)CC1,,inactive: -13.4%
Cc1noc([C@@H]2CN(C(=O)CN3CCCCCC3)C[C@H]2CO)n1,"inconclusive: 10 µM [inhibitor, partial curve]",
COCCNC(=O)c1nc(-c2cccc(C(F)(F)F)c2)c2ccccn12,active: 15.8 µM,
COc1ccc(C2Cn3cnc(C(=O)N4CCC(C(=O)Nc5ccc(C)c(F)c5)CC4)c3CO2)cc1 (stereo not drawn),,inactive: -12.2%
COc1ccc(-n2nc(C)c3c(C(F)(F)F)cc(-c4cccnc4)nc32)cc1,"inconclusive: 28.2 µM [inhibitor, partial curve, poor fit]",

SMILES,Potency,"activity change, negative = inhibition"
Cn1c(=O)n(C)c2cc(SCc3ccco3)c(NC(=O)c3ccc(Cl)cc3)cc21,"inconclusive: 28.2 µM [inhibitor, partial curve, poor fit]",
CCc1ccc(C(=O)N2CCN(C(=O)c3nnn4c3COC(c3ccc(OC)cc3)C4)CC2)cc1 (stereo not drawn),"inconclusive: 22.4 µM [inhibitor, single point]",
CC(C)CN(C(=O)COc1ccc2ccc(=O)oc2c1)C1CCS(=O)(=O)C1 (stereo not drawn),"inconclusive: 28.2 µM [inhibitor, partial curve, poor fit]",
O=C(CCCc1nc(-c2ccncc2)no1)N1CCCC2(CCNCC2)CC1,"inconclusive: 17.8 µM [inhibitor, partial curve, poor fit]",
CC(C)Cc1noc(CN2CCC(c3nc4cc(Cl)ccc4o3)CC2)n1,,inactive: 14%
CCCC(C)N(C)CC(=O)NC1(C#N)CCCCCC1 (stereo not drawn),,inactive: -22.6%
COc1cccc(C(=O)N2CCC(N3C[C@H](O)C[C@H]3C(=O)NC3CCCCC3)CC2)c1C,,inactive: 4.09%
CCCN(CCC)S(=O)(=O)c1ccc(C(=O)Nc2sc3c(c2C(=O)OC)CCN(CC)C3)cc1,"inconclusive: 31.6 µM [inhibitor, single point]",
Cc1nn(C)c(C)c1CNCc1ccnc(N2CCOCC2)c1,"inconclusive: 20 µM [inhibitor, partial curve, poor fit]",
Cc1cc(C)cc(OC(C)C(=O)Nc2c(C(=O)c3ccccc3)oc3ccccc23)c1 (stereo not drawn),"inconclusive: 28.2 µM [inhibitor, partial curve, poor fit]",
C=CCOc1cccc(C(c2c[nH]c3ccccc23)c2c[nH]c3ccccc23)c1,"inconclusive: 39.8 µM [inhibitor, single point]",
Cn1nc(C(=O)N2CCC3(CC2)N=C(c2ccccc2)NO3)c2ccccc21,"inconclusive: 25.1 µM [inhibitor, partial curve]",
CCOc1ccccc1NC(=O)N1CCC([C@@H]2[C@H](OC)C(=O)N2C(C)C)CC1,,inactive: 31.8%
CCn1nccc1-c1cc(C(=O)O)c2ccc(C)c(C)c2n1,"inconclusive: 11.2 µM [inhibitor, partial curve, poor fit]",
CCc1ccc(CN2CCc3nc(N4CCN(CC)CC4)ncc3C2)cc1,"inconclusive: 35.5 µM [inhibitor, single point]",
CC(=O)Nc1ccc(S(=O)(=O)N[C@H]2CO[C@H]3[C@@H]2OC[C@H]3OC(=O)Nc2ccc(Oc3ccccc3)cc2)cc1,,inactive: -16%
OCCCNc1nc(-c2ccccc2)nc2c1oc1ccccc12,"inconclusive: 39.8 µM [inhibitor, single point]",
CCN(C(=O)CSc1nc(-c2ccc(C(C)C)cc2)no1)c1cccc(C)c1,,inconclusive: -30.5% [inhibitor]
Cc1ccc(-n2c(-c3ccco3)nc3c(cnn3-c3ccccc3Cl)c2=O)cc1,,inconclusive: -32.8% [inhibitor]
Cc1cccc(C(=O)Nc2nnc(S(=O)(=O)N(C)c3ccccc3C)s2)c1,"inconclusive: 28.2 µM [inhibitor, partial curve, poor fit]",
COc1nccnc1NC1CCN(C(=O)CCc2ccccc2)CC1,active: 25.1 µM,
